Source: PMC6212790
Some of the results follow. At the low end of the ranking, values are background and their order means little.

Biological target: T1, GST-Rok (full length) (UniProt O34857)
T1 sequence: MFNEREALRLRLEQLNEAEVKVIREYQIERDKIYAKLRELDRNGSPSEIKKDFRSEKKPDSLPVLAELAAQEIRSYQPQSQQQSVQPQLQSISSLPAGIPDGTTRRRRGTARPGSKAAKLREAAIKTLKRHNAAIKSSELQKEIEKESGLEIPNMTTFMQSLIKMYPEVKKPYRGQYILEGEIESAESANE
Assay: protein binding microarray;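 also: rank score from −0.5 (least bound) to 0.5 (best bound)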
Conditions: Rok is a gene silencer of Bacillus subtilis; high values mean tight binding; most listed sequences are background and not binding sites; double strand, one strand shown

Sequence	binding signal [E-score]
ACGACACC	0.151
AGAAGCAG	-0.0328
GAAGTCCA	-0.0509
GAGACAAA	-0.0923
TCAATCGA	-0.0465
GTAAAATA	0.328
CACCATTC	-0.0814
AGCGGCAA	-0.199
ATCAAGGA	-0.0849
CGAACCCC	-0.203
ATTGCCAC	0.0766
AAGAAGTA	0.1
TATGGAGA	0.0793
GCAACCTA	0.173
AGTGCTAG	0.00281
GGCTAAAA	0.0026
ACGTGTAG	0.0421
ACTAACCG	-0.0761
GTGGCAAC	-0.17
ATATCCTC	0.0547
ATCGACCG	0.0303
AGCAGGAG	-0.288
GATTGTGA	-0.0953
GTCGGTTA	-0.00548
CAAGATAC	0.15

Sequence	binding signal [E-score]
ACTGACAA	-0.0164
CAGATCTA	0.223
ACGACGTG	0.0776
TAGCTGAA	0.159
CTAGTGTC	0.0749
TAAGGGAA	-0.061
CGGGAGGC	-0.303
TATGGGCA	-0.0796
CCTGAACG	-0.257
CTGAAGGC	-0.186
AACCACCG	-0.212
CATGAAAA	-0.0975
CAATCTCC	0.0032
GCGTATTA	0.0897
CAGGATAC	0.0188
GGGCTAGA	-0.115
CTCCCCCA	-0.373
GCGTAAGC	-0.127
CACCACGA	-0.16
ATTGAAAT	0.207
ACAAAATA	0.34
AGCGGTAT	0.321
AAATCGGC	0.0274
ACAAATGT	0.112
GGTTAGCA	0.0592

Sequence	binding signal [E-score]
GCGTGAAC	0.00198
AGTTCTCC	0.0135
GAACTCGC	-0.0505
GCGTTCAC	-0.164
CATCGGTA	0.157
ACGTATCA	0.0936
CAGTCGAG	-0.0599
AATTTGTA	0.352
CCATATAC	0.251
AGTGGATA	0.135
ATCCACTA	0.182
ACTGGATC	-0.0472
CTCCTGGA	-0.0893
AGAACAGG	-0.0661
CGCAGCCG	-0.21
CTCTAGGC	-0.146
GCGCAGCC	-0.368
TGCAGCAA	0.0559
AAATCTGG	-0.0994
GGGCCATA	-0.00464
CTCAGGAG	-0.23
CCTTATCG	-0.135
CGGTGTCA	-0.119
CGCGAGCA	-0.0323
AACATATG	0.294

Sequence	binding signal [E-score]
CGTAAGAG	-0.00808
AAGGGATG	-0.102
CGGCTAGA	-0.0329
TACATTGA	0.229
ACGCACGG	-0.181
CGGTTTCC	-0.277
AGTGAACG	-0.0491
GAGCAACC	-0.256
ACGTAGCT	0.268
CGAGGGAG	-0.331
AGTTCAGA	0.0641
GAAGGGAA	-0.156
CTGCAAAC	-0.0694
ACCCTCAG	-0.249
ACAAGGAA	-0.0483
TATCCCGA	0.0019
CATCACAC	-0.0484
CGCGTCCG	-0.384
CAAATCCG	-0.0659
GCACATAA	0.0865
ATTTAAGC	0.0741
GAATCTAC	0.425
TCGGATCA	0.0532
AGCCTCGA	-0.247
AGCGTTCG	-0.262

Sequence	binding signal [E-score]
GGAGCCCA	-0.322
TCACTGAA	-0.0635
AGTTACAG	0.213
GGTTTGAA	-0.0955
CAGAAATA	0.303
ATAAGCCA	-0.106
CATGTGCA	-0.0661
GTGGCCTA	0.0275
ATTGCCAA	0.0149
AACCAATG	-0.129
AAGTTGTC	-0.0239
ACCAGAGA	-0.0288
GAGAATGA	-0.0471
CAAGTAAA	0.173
AACTCAAT	0.296
GCTGAATA	0.228
GGCATTAC	-0.0173
ATGGTTGC	-0.15
TACTTGCA	0.142
AAATGGCA	0.0453
AGAATGGC	-0.0238
ATTGTTCG	0.115
AACGTCTG	-0.369
AACAGACA	0.174
ATGTTGAG	0.0979

Sequence	binding signal [E-score]
CCCGCTTA	-0.331
CAATTCGA	-0.0322
ATCAGGAC	-0.0979
CTGAATCC	-0.216
ATGAGATC	0.0598
ACATATAC	0.289
GAGCTGTA	-0.0291
ATTTACTG	0.287
CATCTTGC	-0.0781
GTTGCTTA	0.0938
ACAGGCGA	-0.0185
CCCCCACG	-0.372
CCTTAAAG	-0.0967
ACTTCAGG	0.166
ACGTCACG	0.0609
ATCTGCCA	-0.00399
AGGGTAAT	0.149
AGCGGCCA	-0.166
ACAGTACT	0.0536
AACCAAGT	0.0344
ACGCAAGG	-0.101
ACAGGCTC	-0.245
GGTTTCAC	-0.247
ACACAGGC	-0.179
GAACGTCA	-0.162

Sequence	binding signal [E-score]
CTACCGAC	0.107
GATTGGAC	-0.151
GAAATAAC	0.252
CAGATCTC	-0.058
GAACGCCA	-0.0399
CAAGGCAA	-0.218
GCTTCGGA	0.000115
AGAATAAA	0.000461
TTGAAAAA	0.0918
GTCACGTA	0.0695
ATCCTATC	0.0996
CGTGAGAG	0.0208
AGCTCCGA	-0.0243
GCAGTGTA	0.0987
AAGTCGAT	0.0686
GCAGACCC	-0.295
AACAATAC	0.109
AGTGAAGC	-0.131
CTATTCAG	0.125
CGTTGCGA	-0.105
ACAACTTC	0.0437
CCAACCCA	-0.0381
